Experimental data reported in US20220023439A1, “ACTIVATABLE ANTI-CD166 ANTIBODIES AND METHODS OF USE THEREOF” (priority 2018, published 2022).

Test: Phase 1/2 study in human subjects: adverse events, DLT and MTD (NCI CTCAE v4.03)
Format: in vivo
[1] = All dosages (0.25-10 mg/kg), n=71, Table 10
[2] = of 18 patients with a treatment delay

B1: Combination 55 (conjugate)
heavy: QITLKESGPTLVKPTQTLTLTCTFSGFSLSTYGMGVGWIRQPPGKALEWLANIWWSEDKHYSPSLKSRLTITKDTSKNQVVLTITNVDPVDTATYYCVQIDYGNDYAFTYWGQGTLVTVSS[skipping human IgG1 constant region]
light: QGQSGQGLCHPAVLSAWESCSSGGGSSGGSAVGLLAPPGGLSGRSDNHGGSDIVMTQSPLSLPVTPGEPASISCRSSKSLLHSNGITYLYWYLQKPGQSPQLLIYQMSNLASGVPDRFSGSGSGTDFTLKISRVEAEDVGVYYCAQNLELPYTFGQGTKLEIKRTVAAPSVFIFPPSDEQLKSGTASVVCLLNNFYPREAKVQWKVDNALQSGNSQESVTEQDSKDSTYSLSSTLTLSKADYEKHKVYACEVTHQGLSSPVTKSFNRGEC
modifications: DM4 via SPDB linker
- Grade 3-4 TRAEs, Nervous System Disorders (% of subjects observed) (6-7 mg/kg, n=18, Table 11A): (11.1%)
- Grade 3-4 TRAEs, Nervous System Disorders (no. of subjects) (6-7 mg/kg, n=18, Table 11A): 2
- Total Grade 3-4 TRAEs (% of subjects observed) (6-7 mg/kg, n=18, Table 11A): (22.2%)
- Total Grade 3-4 TRAEs (no. of subjects) (6-7 mg/kg, n=18, Table 11A): 4
- Grade 3-4 TRAE Anemia (% of subjects observed) (6-7 mg/kg, n=18, Table 11B): (6%)
- Grade 3-4 TRAE Anemia (no. of subjects) (6-7 mg/kg, n=18, Table 11B): 1
- Grade 3-4 TRAE Fatigue (no. of subjects) (6-7 mg/kg, n=18, Table 11B): 0
- Grade 3-4 TRAE HN, hyponatremia (% of subjects observed) (6-7 mg/kg, n=18, Table 11B): (11%)
- Grade 3-4 TRAE HN, hyponatremia (no. of subjects) (6-7 mg/kg, n=18, Table 11B): 2
- Grade 3-4 TRAE Increased ALT (no. of subjects) (6-7 mg/kg, n=18, Table 11B): 0
- Grade 3-4 TRAE Increased AST (no. of subjects) (6-7 mg/kg, n=18, Table 11B): 0
- Grade 3-4 TRAE Keratitis (no. of subjects) (6-7 mg/kg, n=18, Table 11B): 0
- Grade 3-4 TRAE Nausea (% of subjects observed) (6-7 mg/kg, n=18, Table 11B): (6%)
- Grade 3-4 TRAE Nausea (no. of subjects) (6-7 mg/kg, n=18, Table 11B): 1
- Grade 3-4 TRAE PSN, Peripheral sensory neuropathy (% of subjects observed) (6-7 mg/kg, n=18, Table 11B): (6%)
- Grade 3-4 TRAE PSN, Peripheral sensory neuropathy (no. of subjects) (6-7 mg/kg, n=18, Table 11B): 1
- Grade 3-4 TRAE Vomiting (% of subjects observed) (6-7 mg/kg, n=18, Table 11B): (6%)
- Grade 3-4 TRAE Vomiting (no. of subjects) (6-7 mg/kg, n=18, Table 11B): 1
- Grade 3-4 TRAEs, Eye Disorders (% of subjects observed) (8-9 mg/kg, n=23, Table 11A): (23.8%)
- Grade 3-4 TRAEs, Eye Disorders (no. of subjects) (8-9 mg/kg, n=23, Table 11A): 5
- Grade 3-4 TRAEs, Gastrointestinal Disorders (% of subjects observed) (8-9 mg/kg, n=23, Table 11A): (9.5%)
- Grade 3-4 TRAEs, Gastrointestinal Disorders (no. of subjects) (8-9 mg/kg, n=23, Table 11A): 2
- Grade 3-4 TRAEs, Liver Function Tests (% of subjects observed) (8-9 mg/kg, n=23, Table 11A): (4.8%)
- Grade 3-4 TRAEs, Liver Function Tests (no. of subjects) (8-9 mg/kg, n=23, Table 11A): 1
- Grade 3-4 TRAEs, Metabolism & Nutrition Disorders (% of subjects observed) (8-9 mg/kg, n=23, Table 11A): (9.5%)
- Grade 3-4 TRAEs, Metabolism & Nutrition Disorders (no. of subjects) (8-9 mg/kg, n=23, Table 11A): 2
- Grade 3-4 TRAEs, Nervous System Disorders (no. of subjects) (8-9 mg/kg, n=23, Table 11A): 0
- Total Grade 3-4 TRAEs (% of subjects observed) (8-9 mg/kg, n=23, Table 11A): (52.4%)
- Total Grade 3-4 TRAEs (no. of subjects) (8-9 mg/kg, n=23, Table 11A): 11
- Grade 3-4 TRAE Anemia (no. of subjects) (8-9 mg/kg, n=23, Table 11B): 0
- Grade 3-4 TRAE Fatigue (no. of subjects) (8-9 mg/kg, n=23, Table 11B): 0
- Grade 3-4 TRAE HN, hyponatremia (% of subjects observed) (8-9 mg/kg, n=23, Table 11B): (4%)
- Grade 3-4 TRAE HN, hyponatremia (no. of subjects) (8-9 mg/kg, n=23, Table 11B): 1
- Grade 3-4 TRAE Increased ALT (% of subjects observed) (8-9 mg/kg, n=23, Table 11B): (4%)
- Grade 3-4 TRAE Increased ALT (no. of subjects) (8-9 mg/kg, n=23, Table 11B): 1
- Grade 3-4 TRAE Increased AST (% of subjects observed) (8-9 mg/kg, n=23, Table 11B): (4%)
- Grade 3-4 TRAE Increased AST (no. of subjects) (8-9 mg/kg, n=23, Table 11B): 1
- Grade 3-4 TRAE Keratitis (% of subjects observed) (8-9 mg/kg, n=23, Table 11B): (17%)
- Grade 3-4 TRAE Keratitis (no. of subjects) (8-9 mg/kg, n=23, Table 11B): 4
- Grade 3-4 TRAE Nausea (% of subjects observed) (8-9 mg/kg, n=23, Table 11B): (9%)
- Grade 3-4 TRAE Nausea (no. of subjects) (8-9 mg/kg, n=23, Table 11B): 2
- Grade 3-4 TRAE PSN, Peripheral sensory neuropathy (no. of subjects) (8-9 mg/kg, n=23, Table 11B): 0
- Grade 3-4 TRAE Vomiting (% of subjects observed) (8-9 mg/kg, n=23, Table 11B): (4%)
- Grade 3-4 TRAE Vomiting (no. of subjects) (8-9 mg/kg, n=23, Table 11B): 1
- Grade 3-4 TRAEs, Eye Disorders (no. of subjects) (<4 mg/kg, n=10, Table 11A): 0
- Grade 3-4 TRAEs, Gastrointestinal Disorders (no. of subjects) (<4 mg/kg, n=10, Table 11A): 0
- Grade 3-4 TRAEs, Liver Function Tests (no. of subjects) (<4 mg/kg, n=10, Table 11A): 0
- Grade 3-4 TRAEs, Metabolism & Nutrition Disorders (no. of subjects) (<4 mg/kg, n=10, Table 11A): 0
- Grade 3-4 TRAEs, Nervous System Disorders (no. of subjects) (<4 mg/kg, n=10, Table 11A): 0
- Total Grade 3-4 TRAEs (no. of subjects) (<4 mg/kg, n=10, Table 11A): 0
- Grade 3-4 TRAE Anemia (no. of subjects) (<4 mg/kg, n=10, Table 11B): 0
- Grade 3-4 TRAE Fatigue (no. of subjects) (<4 mg/kg, n=10, Table 11B): 0
- Grade 3-4 TRAE HN, hyponatremia (no. of subjects) (<4 mg/kg, n=10, Table 11B): 0
- Grade 3-4 TRAE Increased ALT (no. of subjects) (<4 mg/kg, n=10, Table 11B): 0
- Grade 3-4 TRAE Increased AST (no. of subjects) (<4 mg/kg, n=10, Table 11B): 0
- Grade 3-4 TRAE Keratitis (no. of subjects) (<4 mg/kg, n=10, Table 11B): 0
- Grade 3-4 TRAE Nausea (no. of subjects) (<4 mg/kg, n=10, Table 11B): 0
- Grade 3-4 TRAE PSN, Peripheral sensory neuropathy (no. of subjects) (<4 mg/kg, n=10, Table 11B): 0
- Grade 3-4 TRAE Vomiting (no. of subjects) (<4 mg/kg, n=10, Table 11B): 0
- Grade 3-4 TRAE Anemia (% of subjects observed) (All Cohorts, n=78, Table 11B): (3%)
- Grade 3-4 TRAE Anemia (no. of subjects) (All Cohorts, n=78, Table 11B): 2
- Grade 3-4 TRAE Fatigue (% of subjects observed) (All Cohorts, n=78, Table 11B): (3%)
- Grade 3-4 TRAE Fatigue (no. of subjects) (All Cohorts, n=78, Table 11B): 2
- Grade 3-4 TRAE HN, hyponatremia (% of subjects observed) (All Cohorts, n=78, Table 11B): (4%)
- Grade 3-4 TRAE HN, hyponatremia (no. of subjects) (All Cohorts, n=78, Table 11B): 3
- Grade 3-4 TRAE Increased ALT (% of subjects observed) (All Cohorts, n=78, Table 11B): (4%)
- Grade 3-4 TRAE Increased ALT (no. of subjects) (All Cohorts, n=78, Table 11B): 3
- Grade 3-4 TRAE Increased AST (% of subjects observed) (All Cohorts, n=78, Table 11B): (5%)
- Grade 3-4 TRAE Increased AST (no. of subjects) (All Cohorts, n=78, Table 11B): 4
- Grade 3-4 TRAE Keratitis (% of subjects observed) (All Cohorts, n=78, Table 11B): (8%)
- Grade 3-4 TRAE Keratitis (no. of subjects) (All Cohorts, n=78, Table 11B): 6
- Grade 3-4 TRAE Nausea (% of subjects observed) (All Cohorts, n=78, Table 11B): (5%)
- Grade 3-4 TRAE Nausea (no. of subjects) (All Cohorts, n=78, Table 11B): 4
- Grade 3-4 TRAE PSN, Peripheral sensory neuropathy (% of subjects observed) (All Cohorts, n=78, Table 11B): (3%)
- Grade 3-4 TRAE PSN, Peripheral sensory neuropathy (no. of subjects) (All Cohorts, n=78, Table 11B): 2
- Grade 3-4 TRAE Vomiting (% of subjects observed) (All Cohorts, n=78, Table 11B): (3%)
- Grade 3-4 TRAE Vomiting (no. of subjects) (All Cohorts, n=78, Table 11B): 2
- Subjects with Infusion Reactions Grade 1-2 [1]: 13
- Subjects with Infusion Reactions Grade 3-4 [1]: 1 (1%)
- Subjects with Ocular Toxicities Grade 1-2 [1]: 20
- Subjects with Ocular Toxicities Grade 3-4 [1]: 6
- Subjects with Treatment-Related Adverse Events Grade 1-2 [1]: 42
- Subjects with Treatment-Related Adverse Events Grade 3-4 [1]: 17
- Subjects with Infusion Reactions Grade 1-2 (% of subjects) (All dosages, n=71, Table 10): 18%
- Subjects with Infusion Reactions Grade 3-4 (% of subjects) (All dosages, n=71, Table 10): 1 (1%)
- Subjects with Ocular Toxicities Grade 1-2 (% of subjects) (All dosages, n=71, Table 10): 28%
- Subjects with Ocular Toxicities Grade 3-4 (% of subjects) (All dosages, n=71, Table 10): 8%
- Subjects with Treatment-Related Adverse Events Grade 1-2 (% of subjects) (All dosages, n=71, Table 10): 59%
- Subjects with Treatment-Related Adverse Events Grade 3-4 (% of subjects) (All dosages, n=71, Table 10): 24%
- Patients with at least 1 treatment delay (all cohorts): 18 patients
- Patients with serious AEs (Grades 3-4) (all cohorts): 27 patients
- Patients with serious AEs (Grades 3-4), percent (all cohorts): 35%
- TRAE of any grade: blurred vision (all cohorts): 17%
- TRAE of any grade: decreased appetite (all cohorts): 23%
- TRAE of any grade: diarrhea (all cohorts): 19%
- TRAE of any grade: fatigue (all cohorts): 24%
- TRAE of any grade: increased aspartate aminotransferase (all cohorts): 13%
- TRAE of any grade: infusion-related reaction (all cohorts): 18%
- TRAE of any grade: keratitis (all cohorts): 19%
- TRAE of any grade: nausea (all cohorts): 32%
- TRAE of any grade: vomiting (all cohorts): 15%
- Patients with treatment-related AEs (TRAEs) (all cohorts, any grade): 69 patients
- Patients with treatment-related AEs (TRAEs), percent (all cohorts, any grade): 89%
- Maximum tolerated dose (MTD) (human subjects, every 3 weeks, dose based on adjusted ideal body weight, not reached): > 10 mg/kg
- Safety profile (human subjects, up to 10 mg/kg): favorable safety profile
- Manageability of events (improvement or resolution following dose delay, discontinuation, and/or dose reduction): medically manageable
- Treatment delays because of ocular toxicity, percent [2]: 67%
- Treatment delays because of peripheral neuropathy, percent [2]: 22%
- Discontinuation because of TRAE blurred vision (of 78 patients): 1 patient
- Discontinuation because of TRAE keratitis (of 78 patients): 6 patients
- Discontinuation because of TRAE nausea (of 78 patients): 1 patient
- Discontinuation because of TRAE peripheral neuropathy (of 78 patients): 1 patient
- Grade 4 TRAE gamma-glutamyl transferase increased (patients) (of 78 patients): 1
- Grade 4 TRAE keratitis (patients) (of 78 patients): 1
- Patients with Grade 4 TRAEs (of 78 patients): 2 patients
- Patients with Grade 4 TRAEs, percent (of 78 patients): 2.6%
- Patients with treatment-related adverse events that led to treatment discontinuation (of 78 patients, given cut-off): 9 patients
- Patients with treatment-related adverse events that led to treatment discontinuation, percent (of 78 patients, given cut-off): 12%
- Patients with Grade ≥2 ocular toxicity resulting in dose delay or discontinuation (of the 7 patients in Table 8B with unconfirmed partial response): 5 patients
